# Measurements as given in a collection of fitness landscapes (doi:10.1016/j.celrep.2020.107928).
# Whole data set: some 81,000 sequences, median “one-hybrid fitness for binding NBS DNA” near -0.1, cut for the highest 2% near 0.36. The list shows a part of the results.
# B1: Caulobacter ParB omega fusion; a variant is named by its letters at X, in order, B8GW30 (parent)
# chain: MESVVVGEPGMSEGRRGLGRGLSALLGEVDAAPAQAPGEQLGGSREAPIEILQRNPDQPRRTFREEDLEDLSNSIREKGVLQPILVRPSPDTAGEYQIVAGERAWRAAQRAGLKTVPIMVRELDDLAVLEIGIIENVQRADLNVLEEALSYKVLMEKFERTQENIAQTIGKSXSHVANXMRLLXLPDEVQSYLVSGELTAXHARAIAAAADPVALAKQIIEGGLSVRETEALARKAPNLSAGKSKGGRPPRVKDTDTQALESDLSSVLGLDVSIDHRGSTGTLTITYATLEQLDDLCNRLTRGI
# Variants of: B1
# Experiment: one-hybrid fitness for binding NBS DNA (the Noc-binding site; scaled: cognate 1, non-cognate 0); higher = stronger binding
# Details: with NBS DNA site
# In short: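 Values were rescaled so that cognate is 1 and non-cognate is 0. Each is a fitness, the log change in a variant's read ratio to wild type from Illumina reads of plasmids before and after selection, with three replicate libraries pooled and variants under 10 reads dropped. Selection of the Caulobacter ParB libraries, four specificity codons randomised, used E. coli USO with a HIS3 reporter, site 19 bp from the promoter, on M9-minus-histidine with 0.1 mM IPTG and 5 mM 3-AT for 48 hours at 37°C.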
row,Variant,one-hybrid fitness for binding NBS DNA
1,TREE,≤ 0.2
2,QLKP,≤ 0.2
3,TNSL,≤ 0.2
4,KRAV,≤ 0.2
5,WRCT,≤ 0.2
6,PLPL,≤ 0.2
7,YKES,≤ 0.2
8,ITPR,≤ 0.2
9,QATC,≤ 0.2
10,LQLT,≤ 0.2
11,PGES,≤ 0.2
12,QYSK,≤ 0.2
13,QKYV,≤ 0.2
14,HHWT,≤ 0.2
15,PLRH,≤ 0.2
16,DEDT,≤ 0.2
17,HDPL,≤ 0.2
18,LPVW,≤ 0.2
19,LPTK,≤ 0.2
20,FQNL,≤ 0.2
21,NLAD,≤ 0.2
22,HMNE,≤ 0.2
23,YVRD,≤ 0.2
24,KLSS,≤ 0.2
25,RPSN,≤ 0.2

row,Variant,one-hybrid fitness for binding NBS DNA
1,GLMT,≤ 0.2
2,FCNV,≤ 0.2
3,PPTA,≤ 0.2
4,KHQF,≤ 0.2
5,VTVM,≤ 0.2
6,ASAD,≤ 0.2
7,QTGP,≤ 0.2
8,GSSS,≤ 0.2
9,MWGG,≤ 0.2
10,TNGP,≤ 0.2
11,MAKI,≤ 0.2
12,YPGT,≤ 0.2
13,HRAT,≤ 0.2
14,MTAD,≤ 0.2
15,SPDA,≤ 0.2
16,QPYI,≤ 0.2
17,ASLF,≤ 0.2
18,DAAY,≤ 0.2
19,LTVV,≤ 0.2
20,TKWR,≤ 0.2
21,TYHD,≤ 0.2
22,GDKK,≤ 0.2
23,GWLA,≤ 0.2
24,HFPS,≤ 0.2
25,QVKC,0.2

row,Variant,one-hybrid fitness for binding NBS DNA
1,NRHQ,≤ 0.2
2,DLPN,≤ 0.2
3,RIIG,≤ 0.2
4,KKDS,≤ 0.2
5,VTQM,≤ 0.2
6,LMMC,≤ 0.2
7,APEC,≤ 0.2
8,TVPG,≤ 0.2
9,PGYR,≤ 0.2
10,MKSA,≤ 0.2
11,GGCR,≤ 0.2
12,RIFP,≤ 0.2
13,VYDR,≤ 0.2
14,RNAF,≤ 0.2
15,SSSR,≤ 0.2
16,SQYG,≤ 0.2
17,TQID,≤ 0.2
18,QVLC,≤ 0.2
19,QWMY,≤ 0.2
20,TQHS,≤ 0.2
21,CEGG,≤ 0.2
22,HPWF,≤ 0.2
23,QCVL,≤ 0.2
24,ITNT,≤ 0.2
25,YSGG,≤ 0.2

row,Variant,one-hybrid fitness for binding NBS DNA
1,GLVV,≤ 0.2
2,PVFY,≤ 0.2
3,PNIL,≤ 0.2
4,MYGL,≤ 0.2
5,ESAS,≤ 0.2
6,PNES,≤ 0.2
7,AHRK,≤ 0.2
8,GRNH,≤ 0.2
9,HAKV,≤ 0.2
10,PIAR,≤ 0.2
11,EQGS,≤ 0.2
12,HVCY,≤ 0.2
13,RDHT,≤ 0.2
14,LPLK,≤ 0.2
15,LYHC,≤ 0.2
16,MESS,≤ 0.2
17,FVLR,≤ 0.2
18,DLSS,≤ 0.2
19,SWKS,≤ 0.2
20,MPSI,≤ 0.2
21,LELS,≤ 0.2
22,WINC,≤ 0.2
